Data as given in PubChem BioAssay AID488969 (Vanderbilt High Throughput Screening Facility, 2010).
Over roughly 110,000 compounds, “z-score” has its median near -0.1; the highest 2% begin near 2. The list shows a part of the results. Active and inactive are the calls of the source.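 Rule for the calls: active = z-score in the third read window above 3 or below -3; inactive = the rest.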

The compounds below were run against Metabotropic glutamate receptor 8 (Rattus norvegicus) (UniProt P70579) (assay: rat mGluR8 modulators via GIRK flux, primary screen, cell-based, thallium flux, HTS (AID 488969)). Settings: HEK293 rat mGluR8, GIRK (G protein-gated inwardly rectifying potassium channel) thallium flux, FluoZin2; at 10 µM; stronger effect = higher value; submaximal glutamate (EC20) added with thallium.
Sequence of UniProt P70579 (P70579 whole entry, looked up): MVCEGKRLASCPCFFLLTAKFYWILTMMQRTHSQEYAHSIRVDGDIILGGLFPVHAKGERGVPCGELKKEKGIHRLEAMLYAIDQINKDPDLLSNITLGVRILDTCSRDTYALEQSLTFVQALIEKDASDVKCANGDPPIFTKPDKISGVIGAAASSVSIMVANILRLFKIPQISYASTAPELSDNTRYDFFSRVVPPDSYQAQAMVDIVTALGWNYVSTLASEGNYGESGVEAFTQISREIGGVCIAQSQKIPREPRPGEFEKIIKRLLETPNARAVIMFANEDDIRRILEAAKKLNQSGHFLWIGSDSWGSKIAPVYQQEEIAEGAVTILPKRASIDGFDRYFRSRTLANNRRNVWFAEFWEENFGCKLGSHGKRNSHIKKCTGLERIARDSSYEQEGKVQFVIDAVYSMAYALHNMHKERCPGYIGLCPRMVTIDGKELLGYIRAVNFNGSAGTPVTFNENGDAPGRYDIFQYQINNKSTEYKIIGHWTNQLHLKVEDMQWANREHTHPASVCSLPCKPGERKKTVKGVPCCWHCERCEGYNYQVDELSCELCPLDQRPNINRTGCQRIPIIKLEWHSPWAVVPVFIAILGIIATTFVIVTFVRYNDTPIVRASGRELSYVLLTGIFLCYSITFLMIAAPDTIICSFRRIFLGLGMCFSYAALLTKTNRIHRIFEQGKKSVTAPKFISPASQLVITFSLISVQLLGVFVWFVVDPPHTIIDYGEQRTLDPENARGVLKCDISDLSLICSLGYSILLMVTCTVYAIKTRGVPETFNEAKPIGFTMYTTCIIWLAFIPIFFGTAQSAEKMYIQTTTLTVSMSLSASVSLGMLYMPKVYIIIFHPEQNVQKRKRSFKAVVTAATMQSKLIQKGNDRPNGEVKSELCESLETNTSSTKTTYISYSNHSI
`COc1ccc(NC(=S)NC(NC(=O)c2ccccc2Cl)C(Cl)(Cl)Cl)c([N+](=O)[O-])c1` (stereo not drawn) gave a z-score of -0.469. With `CCC(OCC(O)CN1CCN(CCN2C(=O)c3cccc4cccc(c34)C2=O)CC1)c1ccccc1` (stereo not drawn) the z-score was 0.239. With `Cc1ccc2c(c1)c1c(n2CC(O)Cn2nc(C)c(Br)c2C)CCCC1` (stereo not drawn) the z-score was 0.191. For `COc1ccc(CCN(C)Cc2ccc(OCc3ccccc3)c(OC)c2)cc1OC`, the z-score was -0.513. With `CCCC(=O)Nc1cnc(NC(=O)c2cccc(F)c2)cc1C` the z-score was -0.239. Compound `CCOc1cc(C(C#N)N2CCCCC2)ccc1OC` (stereo not drawn) has a z-score of -0.102. `CC1(C)CC(=O)C(C=NCCO)=C(O)C1` was tested, and the z-score was -0.374. Work on `CCC(=O)N1CCN(c2ccc(NC(=O)c3ccc(N4CCCC4)c([N+](=O)[O-])c3)cc2)CC1` yielded a z-score of -0.186. With `O=C(C1CC1)N(CCN(C(=O)C1CC1)c1ccccc1)c1ccccc1` the z-score was -0.25. With `Cc1ccc2cccc(S(=O)(=O)Nc3ccc4c(c3)OCO4)c2n1` the z-score was 0.322. `CCc1ccccc1NC(=O)C1CC(c2ccc(F)cc2)=NO1` (stereo not drawn) showed a z-score of -0.155. Compound `O=C1NC(c2ccc(-c3ccccc3[N+](=O)[O-])o2)C(C(=O)c2ccc(Cl)cc2)C(O)(C(F)(F)F)N1` (stereo not drawn) has a z-score of 0.276. In the case of `COc1ccc(/C=C2/SC(=O)N(CC(O)Cn3c4ccccc4c4ccccc43)C2=O)cc1` (stereo not drawn), the z-score is reported as -0.167. In the case of `CN(C1CCCCC1)S(=O)(=O)c1ccc(NC(=O)C2CCCCC2)cc1`, the z-score is reported as -0.089. In the case of `CCC(=O)Nn1c(C)nnc1C`, the z-score is reported as 0.492. `CCc1cccc(CC)c1N(COC)C(=O)Cn1nnc2ccccc21` showed a z-score of -0.43. `O=C(CSCc1c(Cl)cccc1Cl)NCc1cccnc1` was tested, and the z-score was -0.0476. `COc1ccc(N2C(=O)[C@@H]3[C@H](C2=O)[C@H]2c4ccccc4C=CN2[C@@H]3C(=O)Nc2ccccc2)cc1` showed a z-score of -0.0536. `O=C(NC1CCCCC1)Sc1ccc(Cl)cc1` showed a z-score of -0.371. Work on `COc1cc(NC(=O)COC(=O)CC(C)(C)C)c(C)cc1[N+](=O)[O-]` yielded a z-score of 0.482. Compound `O=[N+]([O-])c1cc(S(=O)(=O)C(F)(F)F)ccc1Sc1nc2ccccc2[nH]1` has a z-score of -0.379. `COc1ccc(CNC(=O)c2sc(=S)n(-c3ccc(OC)cc3)c2N)cc1` showed a z-score of -0.162. In the case of `N#Cc1c(SCC(=O)O)nc(-c2ccccc2)c2c1CCCC2`, the z-score is reported as -0.582. With `O=C(c1ccco1)N(CCCN1CCOCC1)c1nc(-c2ccc(F)cc2)cs1` the z-score was -0.586. `Cc1ccccc1Cn1c(=N)n(CC(=O)c2ccc([N+](=O)[O-])cc2)c2ccccc21` showed a z-score of 0.33. `COc1cccc(OC)c1C(=O)N1CCN(c2ccccn2)CC1` was tested, and the z-score was 0.0241. `CCOc1ncccc1C(=O)OCc1ccc(C#N)cc1` showed a z-score of -0.199. `CC1CN(C(=O)c2cc(S(=O)(=O)N3CCCC3)c(Cl)cc2Cl)CC(C)O1` (stereo not drawn) showed a z-score of 0.0417. In the case of `O=c1[nH]cnc2c1nc(SCc1ccccc1)n2C1OC(CO)C(O)C1O` (stereo not drawn), the z-score is reported as 1.45. For `Cc1ccc2c(c1)C(CCN)C(=O)N2Cc1ccccc1` (stereo not drawn), the z-score was 0.672. In the case of `CCN(CC)S(=O)(=O)c1ccc(N2CCN(S(=O)(=O)c3ccccc3C#N)CC2)nc1`, the z-score is reported as -0.0272. `COc1cccc(C2CN(c3ccc(F)cc3F)N=C2c2cccs2)c1OC` (stereo not drawn) gave a z-score of 0.19. In the case of `Cc1cc2nnc(SCC(=O)NCc3cccs3)n2c2ccccc12`, the z-score is reported as -0.24. `O=C(O)Cc1ccc(C(=O)c2ccc(F)cc2)s1` gave a z-score of 0.186. For `Cc1cccc(NC(=S)NNC(=O)c2csc(C(C)C)c2)c1`, the z-score was active: 8.28. `c1ccc(CSc2nnc(-c3ccco3)n2Cc2ccccc2)cc1` showed a z-score of -0.196. For `Cc1ccc(S(=O)(=O)NCC(=O)OCc2csc(-c3ccccc3)n2)cc1`, the z-score was -0.808. In the case of `Cn1c(=O)c2c(nc(CN3CCN(c4ccc(F)cc4)CC3)n2Cc2ccccc2F)n(C)c1=O`, the z-score is reported as -0.53. Compound `Cc1nn(C)c(C)c1NC(=O)c1ccc(S(=O)(=O)N(C)C)cc1` has a z-score of -0.138. `CCOc1ccc(-n2c(SCc3nc(-c4cccs4)no3)nnc2-c2ccncc2)cc1` was tested, and the z-score was active: 7.31. For `CC1(C)CC(=O)C2=C(C1)Oc1ncn(CCO)c(=N)c1C2c1ccccc1` (stereo not drawn), the z-score was 0.471. With `CC(C)N=C1SCC(C)(/C=N/O)S1` (stereo not drawn) the z-score was -0.0171. Compound `CCCn1c2c(c(O)c(C(=O)NCc3ccccc3)c1=O)CCCC2` has a z-score of -0.309. For `COc1ccc(NC(=O)c2cccc(N3C(=O)NC4CC3(C)Oc3ccccc34)c2)cc1` (stereo not drawn), the z-score was -0.362. For `CCOc1ccc(/C=N/n2c(SC)nnc2-c2ccccc2)cc1OCC`, the z-score was -1.29. `O=C(CN1CCCC1)Nc1c2c(nc3ccccc13)N(Cc1ccccc1)CC2` was tested, and the z-score was 1.74. With `CCOc1ccc(CC(C(N)=O)C(N)=O)cc1CN(C)C` the z-score was -0.46. In the case of `COc1ccc(Br)cc1C(=O)Nc1ccc(O)cc1`, the z-score is reported as -0.6. `Cc1cc2sc(C(=O)O)c(C)c2s1` gave a z-score of -0.0814. With `O=C1CCCN1c1ccc(S(=O)(=O)NCCc2ccc(Cl)cc2)cc1` the z-score was 0.203. For `COc1cccc(S(=O)(=O)Nc2ccc(C(=O)NCc3ccco3)cc2)c1`, the z-score was -0.154. In the case of `COc1cccc(NC(C(=O)Nc2cccc(C(C)=O)c2)c2ccccc2)c1` (stereo not drawn), the z-score is reported as -0.279. For `CCOC(=O)C1C(=O)CC(=O)CC1CC(C)SCC` (stereo not drawn), the z-score was 0.308. Work on `CCOc1ccc(-c2nnc3ccc(SCC(=O)Nc4nc5ccccc5s4)nn23)cc1` yielded a z-score of -0.542. In the case of `COc1cccc(-n2c(SCC(=O)Nc3sc4c(c3C(N)=O)CCC4)nc3ccccc3c2=O)c1`, the z-score is reported as -0.122. `Cn1ccnc1SCc1ccc([N+](=O)[O-])cc1` gave a z-score of -0.0706. In the case of `Cc1ccc(S(=O)(=O)NC2(C(F)(F)F)C(=O)Nc3c2c(=O)n(C)c(=O)n3C)cc1` (stereo not drawn), the z-score is reported as -0.423. `CCOC(=O)Cc1csc(NC(=O)c2cc(OC)cc(OC)c2)n1` showed a z-score of -0.412. `CCCCn1c(NCCO)nc2ccccc21` gave a z-score of -0.267. With `CC1=CN2C(=N)/C(=C/c3ccc(C)o3)C(=O)N=C2S1` the z-score was 1.02. `COc1ccccc1-c1nnc(N(C)C(=O)C2CCCO2)s1` (stereo not drawn) showed a z-score of -0.00582. With `O=C(CNC(=O)c1ccccc1)OC(C(=O)c1ccccc1)c1ccccc1` (stereo not drawn) the z-score was -0.485. `Cc1ccc(-c2nc(N)sc2CC(=O)OCC(=O)N2C(C)CCCC2C)cc1` (stereo not drawn) showed a z-score of 0.0105. With `c1ccc2c(c1)nc1n2CN(Cc2ccc3c(c2)OCO3)CN1` the z-score was -0.0714. In the case of `CCOc1ccc(NC(=O)CSc2nc3cccnc3n2CC)cc1`, the z-score is reported as -0.19. `CC(C)n1c(O)c(N=Nc2ccccn2)c2ccccc21` was tested, and the z-score was 2.21. `O=C(CSc1nc(-c2ccccc2)cc(C(F)(F)F)n1)c1cccc([N+](=O)[O-])c1` showed a z-score of 0.00947. For `COC(=O)c1ccccc1C(=O)N1CCOCCN(C(=O)c2ccccc2C(=O)OC)CCOCC1`, the z-score was -0.145. For `CCOC(=O)C(C#N)C(c1cccnc1)c1c(C)[nH][nH]c1=O` (stereo not drawn), the z-score was -0.424. Compound `COc1cccc(Nc2c(F)c(OC)c(F)c(F)c2C(=O)O)c1` has a z-score of 1.1. `Cc1nc2cc(C(=O)NCc3ccc4c(c3)OCO4)ccc2n1-c1ccc(Br)cc1` showed a z-score of -0.51. `Cc1cccc(C(=O)NNC(=O)c2ccc(Cl)cc2)c1O` gave a z-score of 0.483. `CCCn1nnc(NC(=O)c2ccccc2Cl)n1` showed a z-score of 0.118. Work on `Cc1ccc(C)c(NC(=S)NCCN2CCOCC2)c1` yielded a z-score of -0.307. For `Clc1cccc(CSc2nc3ccncc3[nH]2)c1`, the z-score was active: 9.69. For `Cc1[nH]n(-c2ccc([N+](=O)[O-])cc2)c(=O)c1C=NCCN1CCN(C(=O)c2ccccc2)CC1`, the z-score was -0.194. With `Cc1ccccc1SCc1noc(C(=O)NCC2CCCO2)c1C(=O)O` (stereo not drawn) the z-score was -0.235. Work on `CC(C)NCC(O)COc1ccc2c(c1)CCC2` (stereo not drawn) yielded a z-score of 0.104. Work on `CCn1c(N2CCC(Cc3ccccc3)CC2)nc2c1c(=O)[nH]c(=O)n2C` yielded a z-score of -0.83. Work on `Cc1cc(C)n(-c2ccc(C(=O)Nc3nnc(C)s3)cc2)n1` yielded a z-score of 0.034. `COCCCNC(=O)/C=C/c1c(Cl)cccc1Cl` showed a z-score of -0.66. With `O=C(CNc1c(Br)cc(Br)cc1Br)NN=C1CCCCC1` the z-score was 0.011. Compound `O=C(Cn1cc(C(=O)c2ccco2)c2ccccc21)NCc1ccco1` has a z-score of -1.4. `COc1ccc(C)cc1N(C(=O)COc1cccc(F)c1)c1nc2ccccc2s1` gave a z-score of 0.179. Compound `CCOc1cc(C(=O)N/N=C(\C)Cc2ccc(OC)cc2)cc(OCC)c1OCC` has a z-score of -0.269. In the case of `O=C(CSc1nnc2sc3ccccc3n12)N1CCN(c2ccccc2)CC1`, the z-score is reported as 0.426. Compound `Cc1ccc(S(=O)(=O)N2CCN(c3c([N+](=O)[O-])cc(C(F)(F)F)cc3[N+](=O)[O-])CC2)cc1` has a z-score of 0.0211. In the case of `Cn1c(C(C(=O)NCC2CCCO2)N(C(=O)Cn2nnc3ccccc32)C2CCCCC2)nc2ccccc21` (stereo not drawn), the z-score is reported as -0.0111. With `CCCn1ncc(OC)c(Cl)c1=O` the z-score was -0.121. `COC(=O)c1cc(Br)c(=O)n(CCc2ccc(O)cc2)c1` gave a z-score of -0.0309. Compound `Cc1cc(C)c(NC(=O)c2ccc(CN3CCc4ccccc4C3)cc2)c(C)c1` has a z-score of -0.111. In the case of `CC1(C)Cc2c(c(N3CCOCC3)nc3snc(Br)c23)CO1`, the z-score is reported as -0.637. In the case of `CCOc1cc(-c2noc(N)c2C(=O)OC)cc(OCC)c1OCC`, the z-score is reported as -0.338. Work on `O=C(COc1ccccc1)Nc1ccc(CSc2ccccc2)cc1` yielded a z-score of -0.138. For `O=C(CN1C(=O)c2ccccc2C1=O)Nc1sc2c(c1C(=O)NCC1CCCO1)CCC2` (stereo not drawn), the z-score was active: 4.33. Work on `Cc1nn(Cc2ccccc2Cl)c(C)c1NC(=O)CSc1n[nH]c(C)c1[N+](=O)[O-]` yielded a z-score of -0.179. With `CCOC(=O)Cc1nnc(Nc2cccc(O)c2)c2ccccc12` the z-score was -0.674. `Cc1cc([N+](=O)[O-])cc2c1NCC1CC=CC21` (stereo not drawn) was tested, and the z-score was -1.92. Work on `c1ccc(-c2cc(-c3nc(-c4ccccn4)no3)c3ccccc3n2)cc1` yielded a z-score of 0.0959. In the case of `O=P1(c2ccccc2)C=Cn2c1cc1c2CCCC1` (stereo not drawn), the z-score is reported as 0.549. `Fc1ccc(NC(=S)N2CCCc3ccccc32)cc1` gave a z-score of -0.143. Work on `O=C(CNC(=O)c1ccccc1)N/N=C/c1cc(Br)ccc1O` yielded a z-score of -0.0334. `CCOc1ccc(Cc2nc(N)nc(N)n2)cc1` showed a z-score of 0.513. In the case of `COCCNc1oc(-c2ccc(C)cc2)nc1C#N`, the z-score is reported as -0.528. `CC1(C)CC(=O)c2cc(C(=O)N3CCCCC3)c(=O)n(-c3ccc(Cl)cc3)c2C1` gave a z-score of 0.117. `CCn1ncc(C2=NOC(C(=O)NCc3ccc(OC)cc3)C2)c1C` (stereo not drawn) gave a z-score of 0.792. In the case of `CCOC(=O)c1c(/N=C/c2cc(C)ccc2O)sc2c1CCC2`, the z-score is reported as -0.0611. Compound `CCOC(=O)C1CCCN(C(=O)c2cc(-c3ccc(C)cc3)on2)C1` (stereo not drawn) has a z-score of -0.235.
